Test results published in paper PMC4336329 (PLoS ONE, 2015).
Hit rate of the full screen: of about 310,000 compounds, about 2,200 (0.71%) showed an effect of 50% or more. The effect is printed as a negative number. The list shows a part of the results.

Biological target: human ether-à-go-go-related gene (hERG) potassium channel (human, UniProt Q12809)
Test: primary screen, population patch clamp on CHO cells stably expressing hERG

Sequence of human ether-à-go-go-related gene (hERG) potassium channel (Q12809 whole entry, looked up): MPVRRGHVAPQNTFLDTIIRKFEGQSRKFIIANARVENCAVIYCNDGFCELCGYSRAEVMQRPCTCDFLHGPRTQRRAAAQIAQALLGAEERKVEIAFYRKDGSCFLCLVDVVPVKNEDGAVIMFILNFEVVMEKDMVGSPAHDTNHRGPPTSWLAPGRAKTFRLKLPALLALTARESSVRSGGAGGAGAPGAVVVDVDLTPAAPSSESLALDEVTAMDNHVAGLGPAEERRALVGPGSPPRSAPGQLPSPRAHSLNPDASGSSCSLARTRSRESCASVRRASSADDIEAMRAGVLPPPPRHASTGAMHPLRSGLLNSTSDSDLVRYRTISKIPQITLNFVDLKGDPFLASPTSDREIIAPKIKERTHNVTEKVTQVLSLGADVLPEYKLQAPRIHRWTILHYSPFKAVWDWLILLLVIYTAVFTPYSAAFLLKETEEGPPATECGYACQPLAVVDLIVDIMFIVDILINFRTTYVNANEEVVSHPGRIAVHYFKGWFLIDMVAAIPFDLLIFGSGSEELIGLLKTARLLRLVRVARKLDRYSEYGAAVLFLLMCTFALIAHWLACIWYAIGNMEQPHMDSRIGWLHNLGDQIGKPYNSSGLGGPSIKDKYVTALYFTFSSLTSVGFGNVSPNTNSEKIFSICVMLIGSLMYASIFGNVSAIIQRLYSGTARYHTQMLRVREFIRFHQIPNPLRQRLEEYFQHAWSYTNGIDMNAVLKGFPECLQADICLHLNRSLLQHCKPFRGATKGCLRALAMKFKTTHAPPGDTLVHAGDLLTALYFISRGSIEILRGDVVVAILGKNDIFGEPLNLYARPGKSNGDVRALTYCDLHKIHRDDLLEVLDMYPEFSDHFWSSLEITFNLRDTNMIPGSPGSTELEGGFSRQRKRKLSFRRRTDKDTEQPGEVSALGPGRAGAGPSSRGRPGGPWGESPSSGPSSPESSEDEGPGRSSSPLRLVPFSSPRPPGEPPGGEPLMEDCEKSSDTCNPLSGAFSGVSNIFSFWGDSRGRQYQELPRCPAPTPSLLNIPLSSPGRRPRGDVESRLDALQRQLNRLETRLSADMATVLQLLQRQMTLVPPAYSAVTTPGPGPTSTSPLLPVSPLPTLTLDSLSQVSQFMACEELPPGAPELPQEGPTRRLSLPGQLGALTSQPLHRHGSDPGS

Row | Compound | hERG current change (%, negative = inhibition) at 1uM [%]
1 | COCCCN(C(=S)NC(=O)c1ccc(Br)cc1)c1c(N)n(Cc2ccccc2)c(=O)[nH]c1=O | 12
2 | CCOC(=O)c1ccc(NCc2nc3ccccc3n2C)cc1 | 3.79
3 | CC(NC(=O)C1CCCN(S(=O)(=O)c2cccc3nonc23)C1)c1ccccc1 (stereo not drawn) | -8.84
4 | Cc1ccc(C2NC(=NCc3ccccc3)Nc3nc(C)cc(=O)n32)cc1 (stereo not drawn) | 12
5 | O=C(CCNC(=O)Cn1ccc2ccccc2c1=O)NCCN1CCN(c2ccccc2F)CC1 | 9.65
6 | Fc1ccc(NC(=S)NCc2ccccn2)cc1 | 17.2
7 | CNC(=O)c1c(C)[nH]c(=S)c(C#N)c1-c1ccco1 | 4.79
8 | Cc1c2cnn(CC(=O)NCc3ccccn3)c(=O)c2c(C)n1Cc1ccccc1 | 8.23
9 | COc1ccc(Nc2nc(OC)nc(N3CCOCC3)n2)cc1 | -0.935
10 | CC(NC(=O)COC(=O)C1CCC1)c1ccccc1 (stereo not drawn) | 2.37
11 | CC(=O)N1CCN2C(=O)C1CCCC(=O)c1cc(C3CCCCC3)ccc12 (stereo not drawn) | -3.94
12 | O=[N+]([O-])c1ccc(/C=N/n2cnc3ccccc32)s1 | 3.01
13 | O=C(CO/N=C/c1ccc(Cl)cc1Cl)NNC(=O)c1cccc(Cl)c1 | 13.2
14 | CCOC(=O)CNC(=O)C1(c2ccccc2)CCCC1 | 9.01
15 | COc1cc(Br)cc(/C=N/NC(=O)Cc2ccccc2)c1O | 12.3
16 | CCOc1ccc(NC(=O)c2ccccc2OCC(=O)c2ccccc2)cc1 | 14.1
17 | Cc1cccc(N(CC(=O)NCc2ccco2)C(=O)CCC(=O)Nc2nccs2)c1 | 17.6
18 | Cc1ccc(OCCCNC2CCCC2)cc1 | 6.22
19 | CC(=O)c1cccc(N2C(=NC(=O)C3CC3)SC3CS(=O)(=O)CC32)c1 (stereo not drawn) | 9.61
20 | COc1cccc(-c2nnn(CC(=O)Nc3ccc(C)cc3C)n2)c1OC | 3.24
21 | Cn1c(=O)c(=O)n(C)c2cc(S(=O)(=O)CCC(=O)Nc3ccc(F)cc3)ccc21 | 8.27
22 | Cn1c(SCC(=O)c2ccc3c(c2)OCO3)nnc1C1COc2ccccc2O1 (stereo not drawn) | -18.5
23 | FC(F)(F)c1cccc(NC(=S)N2CCCCCC2)c1 | 10.8

Row | Compound | hERG current change (%, negative = inhibition) at 1uM [%]
24 | CCN(CC)CCN(C(=O)c1ccc2ccccc2c1)c1nc2ccc(F)cc2s1.Cl | 12
25 | CC(=O)CCc1c(C)[nH]c2ccccc2c1=O | 14
26 | Cc1ccc(OCc2nc(-c3ccc(-n4cccc4)cc3)no2)cc1C | 3.71
27 | Cn1c(N)c(C(=O)COC(=O)CSc2ccc3ccccc3c2)c(=O)n(C)c1=O | 7.9
28 | CCOc1ccccc1OCC(=O)Nc1ccc(S(=O)(=O)N(C)C)cc1 | 7.05
29 | COc1ccc(C(=O)Nc2cc(C)on2)cc1OC | 12.3
30 | O=C(NCc1nnc(SCC(=O)N2CCCCC2)o1)c1ccc(F)cc1 | 14.7
31 | COc1ccc(NC(=O)CSc2nc3ccccc3c(=O)n2CCCN2CCC(C)CC2)c(OC)c1 | -72.1
32 | COc1ccc(N2CCN(C(C)=C3C(=O)c4ccccc4C3=O)CC2)cc1 | -3.55
33 | Cc1ccccc1Oc1ncnc(N)c1[N+](=O)[O-] | 12.4
34 | Cc1ccccc1NS(=O)(=O)c1cc(C(=O)N2CCCC2)ccc1C | 8.59
35 | CCn1c(=O)cc(N2CCCCC2)[nH]c1=O | 16.1
36 | Cc1ccc(NC(=O)CN(Cc2ccco2)Cc2ccccc2O)cc1C | 10.9
37 | Cn1c(=O)n(C)c2cc(/C=N/NC(N)=S)ccc21 | 16.2
38 | Cc1cc(C)nc(NC(=O)c2c(-c3ccccc3Cl)noc2C)c1 | 10.9
39 | Cn1c2ccccc2c(=O)c2cc(C#Cc3ccsc3)ccc21 | 12.8
40 | CC(C(=O)NCC1CCCCC1)N(C)Cc1ccc(Br)cc1 (stereo not drawn) | 15
41 | O=S(=O)(NC1=NCCCCCC1)c1cccs1 | 14.1
42 | C=CCOc1ccc(C(=O)Nc2ccc(OCC)cc2)cc1 | 14.3
43 | Cc1ccc(NC(=O)N2C(=O)C3(OCCO3)c3ccccc32)cc1 | 16.1
44 | Cc1cc(C)cc(NC(=O)C(=O)NCCCN2CCOCC2)c1 | 4.8
45 | COc1ccc(OCC(=O)c2c[nH]c3ccccc23)cc1 | 10.6
